# Assay results taken from PubChem BioAssay (NCATS).
# “And” between values parts separate entries of the source, which are not always exact repeats. Equal entries are not always repeated. Inconclusive results, whose numbers are uncertain, are shown with a selection of clear calls. A potency beside an inconclusive call is a rough fit, not a confirmed value. The source made the active and inactive calls. Calls come from the whole dose curve; as a rule, active = well fitted inhibition curve with a large enough effect; inconclusive = small, poorly fitted or top-dose-only effect; inactive = no such curve, though single readings can be large or run the other way.
# Experiment: NS1 protein of Zika virus - qHTS assay to identify small molecule inhibitors in human HEK 293 cells (AID 1347053); note: nearly all actives have a fitted effect of over 55% in size
# Conditions: HEK293 ZIKV MR766 infection, NS1 TR-FRET, 24 h; series mostly up to 46.1 µM
# How it was run: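 Read-out is a two-antibody TR-FRET for ZIKV NS1, normalized between uninfected cells and infected cells. Compound added 1 h before MR766 infection at MOI 0.5; human HEK 293 cells incubated 24 h, 37 C.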
# Potency is the fitted concentration of half-maximal effect; tags give direction and shape of the fitted curve.
row,SMILES,Potency
1,FC(F)(F)c1ccc(C=Cc2nc(COc3ccc(CCCCn4ccnn4)cc3)co2)cc1,"inconclusive: 37.2 µM [inhibitor, single point]"
2,Clc1ccc(COC(Cn2ccnc2)c2ccc(Cl)cc2Cl)c(Cl)c1 (centres undefined),"inconclusive: 37.2 µM [inhibitor, single point]"
3,Cc1cccc(-c2[nH]c(C(C)(C)C)nc2-c2ccc3c(c2)OCO3)n1,"inconclusive: 37.2 µM [inhibitor, single point]"
4,COc1ccc(-c2ccc3ncc4c(c3c2)n(-c2ccc(N3CCNCC3)c(C(F)(F)F)c2)c(=O)n4C)cn1,active: 6.62 µM
5,CC(=O)N1CCN(c2ccc(OC[C@H]3CO[C@](Cn4ccnc4)(c4ccc(Cl)cc4Cl)O3)cc2)CC1,"inconclusive: 29.6 µM [inhibitor, single point]"
6,CC(C)NC[C@@H](C(=O)N1CCN(c2ncnc3c2[C@H](C)C[C@H]3O)CC1)c1ccc(Cl)cc1,"inconclusive: 33.2 µM [inhibitor, single point]"
7,CC[C@H](CC#N)OC(=O)N[C@@H](C)c1cccc(NC(=O)Nc2ccc(-c3cnco3)c(OC)c2)c1,active: 0.235 µM
8,CCCCc1oc2ccc(NS(C)(=O)=O)cc2c1C(=O)c1ccc(OCCCN(CCCC)CCCC)cc1,"active: 11.8 µM and inconclusive: 35.5 µM [inhibitor, single point]"
9,Cn1c(NCCN(CCO)CCCc2ccc([N+](=O)[O-])cc2)cc(=O)n(C)c1=O,"inconclusive: 37.2 µM [inhibitor, partial curve, poor fit]"
